For this test, the system named is occlusive thrombus in the mouse carotid artery. The test is described as follows: carotid artery thrombosis model: occlusive thrombus formation induced by electrolytic injury, recanalisation classified from carotid blood flow. Type of test: in vivo, C57BL/6 male mice. To be noted: dual therapy: anticoagulant (hirudin 0.3 mg/kg bolus or argatroban 80 ug/kg bolus + 40 ug/kg/min) together with rt-PA 10 mg/kg.

Take `CC1CNc2c(cccc2S(=O)(=O)N[C@@H](CCCNC(=N)N)C(=O)N2CC[C@@H](C)C[C@@H]2C(=O)O)C1` (some centres unmarked) [argatroban, reference compound]: the “thrombolysis and vessel reocclusion (in words)” value is “improves thrombolysis and reduces vessel reocclusion”.
For the compound hirudin [reference compound], the “thrombolysis and vessel reocclusion (in words)” value was “improves thrombolysis and reduces vessel reocclusion”.

The record behind these values is patent US20230226070A1, “TREATMENT OF THROMBOSIS AND ASSOCIATED DISORDERS WITH AN ANTI-PLATELET AGENT” (THE HEART RESEARCH INSTITUTE LTD, priority 2020, published 2023).
